Structures can show the parent of a compound that is named as a salt. Some of the results follow. Single values are uncertain, as repeats are few or missing.
system: SKNBE; experiment: area under viability curve (10 nM-1 µM), viability relative to solvent or trametinib-only control (AUC (arbitrary, % viability x concentration range)); higher = less growth inhibition (more viable cells); conditions: 72 h compound exposure (96 h after seeding) h; trametinib co-treatment 0 µM
Protocol: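 Four neuroblastoma cell lines (KCNR, SKNBE, SJNB8, SKNAS) were seeded in 384-well plates. At 24 h, 1 µM trametinib or DMSO was added, followed by library compounds at 10 nM, 100 nM and 1 µM. Viability was read by MTT at 96 h and normalised to solvent-treated cells (DMSO arm) or to trametinib-only cells (trametinib arm). The area under the 3-point viability curve was computed in GraphPad Prism; units are as given (approx. 100000 = no effect).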
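Further: KCNR is a neuroblastoma cell line carrying an ALK mutation, in this DMSO arm without trametinib, viability was normalised to solvent-treated cells.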

Row | Structure (SMILES) | area under viability curve
1 | COc1cc([C@@H]2c3cc4c(cc3[C@@H](O[C@@H]3O[C@@H]5CO[C@@H](C)O[C@H]5[C@H](O)[C@H]3O)[C@H]3COC(=O)[C@H]23)OCO4)cc(OC)c1O [Etoposide] | 89400
2 | CC(/C=C/C(=O)NO)=C\[C@@H](C)C(=O)c1ccc(N(C)C)cc1 [Trichostatin A] | 36600
3 | COc1cc2c(cc1OC)CN(CCc1ccc(NC(=O)c3cccc4c(=O)c5cccc(OC)c5[nH]c34)cc1)CC2 [Elacridar HCl] | 107000
4 | CCOc1ccn(-c2ccc(F)cc2)c(=O)c1C(=O)Nc1ccc(Oc2ccnc(N)c2Cl)c(F)c1 | 110000
5 | Cc1cn(-c2cc(NC(=O)c3ccc(C)c(Nc4nccc(-c5cccnc5)n4)c3)cc(C(F)(F)F)c2)cn1 [Nilotinib] | 92900
6 | COc1cccc2c1C(=O)c1c(O)c3c(c(O)c1C2=O)C[C@@](O)(C(=O)CO)C[C@@H]3O[C@H]1C[C@H](N)[C@H](O)[C@H](C)O1 [Doxorubicin hydrochloride] | 54800

same assay, conditions: 72 h compound exposure (96 h after seeding) h; trametinib co-treatment 1 µM

Row | Structure (SMILES) | area under viability curve
7 | CC1(C)CNc2cc(NC(=O)c3cccnc3NCc3ccncc3)ccc21 [Motesanib] | 104000
8 | CC(C)[C@H](O)C(=O)N[C@@H](C)C(=O)N[C@@H]1C(=O)N(C)CCc2ccccc21 [Semagacestat] | 96000
9 | CCOc1cc2ncc(C#N)c(Nc3ccc(OCc4ccccn4)c(Cl)c3)c2cc1NC(=O)/C=C/CN(C)C [Neratinib] | 75600
10 | Cc1cccn2c(=O)c(C=C(C#N)c3nc4ccccc4s3)c(Oc3ccc(F)cc3)nc12 | 107000
11 | N.N.O=C([O-])C[O-].[Pt+2] [Nedaplatin] | 102000
12 | Cc1cc(Nc2cc(N3CCN(C)CC3)nc(Sc3ccc(NC(=O)C4CC4)cc3)n2)n[nH]1 [Tozasertib] | 37700
13 | CC(=O)Nc1ccc(C(=O)Nc2ccccc2N)cc1 [Tacedinaline] | 107000
14 | C=C(C)[C@@H](CC=C(C)C)C[C@@]12C[C@@H](CC=C(C)C)C(C)(C)[C@@](CC=C(C)C)(C(=O)C(C(=O)c3ccc(O)c(O)c3)=C1O)C2=O [Garcinol] | 101000
15 | CNC(=O)c1ccc(N2C(=S)N(c3ccc(C#N)c(C(F)(F)F)c3)C(=O)C2(C)C)cc1F [Enzalutamide] | 96000
16 | CN1CC[C@H](c2c(O)cc(O)c3c(=O)cc(-c4ccccc4Cl)oc23)[C@H](O)C1 [Flavopiridol] | 37100
17 | CC(C)C1O[C@H](CN)[C@@H](CN)O1.O=C([O-])CC(=O)[O-].[Pt+2] [Eptaplatin] | 93000
18 | Nc1nc(OCc2ccccc2)c2nc[nH]c2n1 [O6-Benzylguanine] | 108000
19 | CC(=O)O[C@H]1C(=O)[C@@]2(C)[C@H]([C@H](OC(=O)c3ccccc3)[C@]3(O)C[C@H](OC(=O)[C@H](O)[C@@H](NC(=O)c4ccccc4)c4ccccc4)C(C)=C1C3(C)C)[C@]1(OC(C)=O)CO[C@@H]1C[C@@H]2O [7-epi-Taxol] | 8960
20 | C[C@]1(c2nc3c(C(N)=O)cccc3[nH]2)CCCN1 [Veliparib] | 106000
21 | COc1cc2c(Oc3ccc4[nH]c(C)cc4c3F)ncnc2cc1OCCCN1CCCC1 [Cediranib] | 81400
22 | O=Nc1ccc(O)c2ncccc12 | 101000
23 | Cc1ccc(NC(=O)c2ccc(CN3CCN(C)CC3)cc2)cc1Nc1nccc(-c2cccnc2)n1 [Imatinib mesylate] | 101000
24 | CCc1c2c(nc3ccc(O)cc13)-c1cc3c(c(=O)n1C2)COC(=O)[C@]3(O)CC [7-Ethyl-10-hydroxycamptothecin] | 9240

Row | Structure (SMILES) | area under viability curve
25 | O=C1c2c(O)ccc(O)c2C(=O)c2c(NCCNCCO)ccc(NCCNCCO)c21 [Mitoxanthrone HCl] | 16100
26 | CC(C)(C)c1nc(-c2cccc(NS(=O)(=O)c3c(F)cccc3F)c2F)c(-c2ccnc(N)n2)s1 [Dabrafenib] | 95400
27 | CC(=O)[O-].CC(=O)[O-].N.NC1CCCCC1.[Cl-].[Cl-].[Pt+4] [Satraplatin] | 70200
28 | COc1cc2c(cc1OC)CN(CCc1ccc(NC(=O)c3cc(OC)c(OC)cc3NC(=O)c3cnc4ccccc4c3)cc1)CC2 [Tariquidar] | 113000
29 | CC1(C)CCC(CN2CCN(c3ccc(C(=O)NS(=O)(=O)c4ccc(NCC5CCOCC5)c([N+](=O)[O-])c4)c(Oc4cnc5[nH]ccc5c4)c3)CC2)=C(c2ccc(Cl)cc2)C1 [Venetoclax] | 89200
30 | CN(C)C(=O)c1cc2cnc(Nc3ccc(N4CCNCC4)cn3)nc2n1C1CCCC1 [Ribociclib] | 56600
31 | O=C(CCCN1C(=O)c2cccc3cccc(c23)C1=O)NO [Nullscript] | 103000
32 | C=C1C(=O)O[C@@H](CCC)[C@@H]1C(=O)O [Butyrolactone 3] | 111000
33 | O=c1[nH]c(=O)n(C2CCCO2)cc1F (configuration not stated) [Tegafur] | 110000
34 | C#Cc1cccc(Nc2ncnc3cc(OCCOC)c(OCCOC)cc23)c1 [Erlotinib mesylate] | 104000
35 | CC(C)C[C@H](NC(=O)[C@@H](Cc1c[nH]c2ccccc12)NC(=O)[C@H](Cc1ccc(O)cc1)NC(=O)[C@H](CO)NC(=O)[C@H](Cc1c[nH]c2ccccc12)NC(=O)[C@H](Cc1cnc[nH]1)NC(=O)[C@@H]1CCC(=O)N1)C(=O)N[C@@H](CCCN=C(N)N)C(=O)N1CCC[C@H]1C(=O)NCC(N)=O [Triptorelin acetate] | 100000
36 | CC[C@@]1(O)C(=O)OCc2c1cc1n(c2=O)Cc2cc3cc(O)ccc3nc2-1 [10-Hydroxycamptothecin] | 7880
37 | COc1cc([C@@H]2c3cc4c(cc3[C@@H](O[C@@H]3O[C@@H]5CO[C@@H](C)O[C@H]5[C@H](O)[C@H]3O)[C@H]3COC(=O)[C@H]23)OCO4)cc(OC)c1O [Etoposide] | 54900
38 | CC(/C=C/C(=O)NO)=C\[C@@H](C)C(=O)c1ccc(N(C)C)cc1 [Trichostatin A] | 9610
39 | COc1cc2c(cc1OC)CN(CCc1ccc(NC(=O)c3cccc4c(=O)c5cccc(OC)c5[nH]c34)cc1)CC2 [Elacridar HCl] | 111000
40 | CCOc1ccn(-c2ccc(F)cc2)c(=O)c1C(=O)Nc1ccc(Oc2ccnc(N)c2Cl)c(F)c1 | 108000
41 | Cc1cn(-c2cc(NC(=O)c3ccc(C)c(Nc4nccc(-c5cccnc5)n4)c3)cc(C(F)(F)F)c2)cn1 [Nilotinib] | 74600
42 | COc1cccc2c1C(=O)c1c(O)c3c(c(O)c1C2=O)C[C@@](O)(C(=O)CO)C[C@@H]3O[C@H]1C[C@H](N)[C@H](O)[C@H](C)O1 [Doxorubicin hydrochloride] | 14200

— the supplement of paper PMC9990464
